Laboratory results taken from the supplement of paper PMC7436455.
The list shows a part of the results. Rule as the data show it: only hits are listed; in these data all have Qbind below 0.67. Repeats are few or missing, and single values can be far off.

How the values were obtained:
Experiment in all cases: Qbind: 19F CPMG 200 ms/0 ms integral ratio with target relative to without target; higher = weaker binding (less relaxation enhancement by target)
[1] = system: Adenine-sensing riboswitch
[2] = system: PtkA (30 kDA)
[3] = system: T7 RNAP (100kDA)
[4] = system: TPP-sensing riboswitch tenA
[5] = system: TPP-sensing riboswitch thiM (80)
[6] = system: Tel26 G-quadruplex (26 nt)
[7] = system: Translation initiation region (60 nt); details: 19F shift (ppm): -112.0628
[8] = system: ZMP-sensing riboswitch
[9] = system: c-di-GMP-sensing riboswitch (98 nt)
[10] = system: cKit G-quadruplex (24 nt)
[11] = system: cMyc G-quadruplex (22 nt)
[12] = system: wtTel26 G-quadruplex (26 nt)
[13] = system: Terminator stem (39 nt)

In the case of `O=C(Nc1cccc(F)c1)c1cnccn1`, the “Qbind: 19F CPMG 200 ms/0 ms integral ratio” value ([1]; 19F shift (ppm): -112.0628) is reported as active: 0.012, the “Qbind: 19F CPMG 200 ms/0 ms integral ratio” value ([2]; 19F shift (ppm): -111.981) is reported as active: 0.197 and the “Qbind: 19F CPMG 200 ms/0 ms integral ratio” value ([3]; 19F shift (ppm): -112.049) is reported as active: 0.13. For the same compound, the “Qbind: 19F CPMG 200 ms/0 ms integral ratio” value ([4]; 19F shift (ppm): -112.0565) was active: -0.157, the “Qbind: 19F CPMG 200 ms/0 ms integral ratio” value ([5]; 19F shift (ppm): -112.0565) was active: 0.422 and the “Qbind: 19F CPMG 200 ms/0 ms integral ratio” value ([6]; 19F shift (ppm): -112.0029) was active: -0.0348. For the same compound, the “Qbind: 19F CPMG 200 ms/0 ms integral ratio” value [7] was active: 0.217, the “Qbind: 19F CPMG 200 ms/0 ms integral ratio” value ([8]; 19F shift (ppm): -112.014) was active: 0.0179 and the “Qbind: 19F CPMG 200 ms/0 ms integral ratio” value ([9]; 19F shift (ppm): -112.014) was active: 0.409. For the same compound, the “Qbind: 19F CPMG 200 ms/0 ms integral ratio” value ([10]; 19F shift (ppm): -112.0029) was active: -0.13, the “Qbind: 19F CPMG 200 ms/0 ms integral ratio” value ([11]; 19F shift (ppm): -112.0029) was active: -0.151 and the “Qbind: 19F CPMG 200 ms/0 ms integral ratio” value ([12]; 19F shift (ppm): -112.0029) was active: 0.382.

`Cc1ccc(C(N)=O)c(F)c1` was tested, and the “Qbind: 19F CPMG 200 ms/0 ms integral ratio” value ([1]; 19F shift (ppm): -114.672) was active: 0.422, the “Qbind: 19F CPMG 200 ms/0 ms integral ratio” value ([3]; 19F shift (ppm): -114.8413) was active: 0.199 and the “Qbind: 19F CPMG 200 ms/0 ms integral ratio” value ([4]; 19F shift (ppm): -114.645) was active: 0.206. For the same compound, the “Qbind: 19F CPMG 200 ms/0 ms integral ratio” value ([8]; 19F shift (ppm): -114.624) was active: 0.0729.

With `Fc1cccc(CN2CCOCC2)c1` the “Qbind: 19F CPMG 200 ms/0 ms integral ratio” value ([13]; 19F shift (ppm): -112.8194) was active: 0.133, the “Qbind: 19F CPMG 200 ms/0 ms integral ratio” value ([9]; 19F shift (ppm): -112.8194) was active: 0.526 and the “Qbind: 19F CPMG 200 ms/0 ms integral ratio” value ([10]; 19F shift (ppm): -112.622) was active: 0.242. The “Qbind: 19F CPMG 200 ms/0 ms integral ratio” value ([11]; 19F shift (ppm): -112.622) was active: 0.449 and the “Qbind: 19F CPMG 200 ms/0 ms integral ratio” value ([12]; 19F shift (ppm): -112.622) was active: 0.449.

`CCn1cc(C(=O)NCc2ccc(F)cc2)cn1` was tested, and the “Qbind: 19F CPMG 200 ms/0 ms integral ratio” value ([3]; 19F shift (ppm): -116.004) was active: 0.292.

With `O=C(NCCc1ccncc1)c1ccccc1F` the “Qbind: 19F CPMG 200 ms/0 ms integral ratio” value ([4]; 19F shift (ppm): -115.614) was active: 0.37 and the “Qbind: 19F CPMG 200 ms/0 ms integral ratio” value ([10]; 19F shift (ppm): -115.635) was active: 0.613.

In the case of `CNS(=O)(=O)c1cccc(C)c1F`, the “Qbind: 19F CPMG 200 ms/0 ms integral ratio” value ([3]; 19F shift (ppm): -110.5185) is reported as active: 0.219.

With `CC(O)COc1cccc(F)c1` (stereo not given) the “Qbind: 19F CPMG 200 ms/0 ms integral ratio” value ([5]; 19F shift (ppm): -111.9628) was active: 0.64.

`Fc1ccc(Cn2cnc3ccccc32)cc1` was tested, and the “Qbind: 19F CPMG 200 ms/0 ms integral ratio” value ([3]; 19F shift (ppm): -108.367) was active: 0.26 and the “Qbind: 19F CPMG 200 ms/0 ms integral ratio” value ([6]; 19F shift (ppm): -108.4314) was active: 0.556.

With `O=C(NCc1ccccc1)c1cccc(F)c1` the “Qbind: 19F CPMG 200 ms/0 ms integral ratio” value ([2]; 19F shift (ppm): -112.4823) was active: 0.153, the “Qbind: 19F CPMG 200 ms/0 ms integral ratio” value ([3]; 19F shift (ppm): -112.5551) was active: 0.0778 and the “Qbind: 19F CPMG 200 ms/0 ms integral ratio” value ([13]; 19F shift (ppm): -112.5551) was active: 0.587.

For `Fc1ccc(CNC[C@H]2CCCO2)cc1`, the “Qbind: 19F CPMG 200 ms/0 ms integral ratio” value ([5]; 19F shift (ppm): -112.1831) was active: 0.624.

In the case of `CN1CCN(C(=O)Nc2ccc(F)cc2)CC1`, the “Qbind: 19F CPMG 200 ms/0 ms integral ratio” value ([4]; 19F shift (ppm): -118.212) is reported as active: 0.501 and the “Qbind: 19F CPMG 200 ms/0 ms integral ratio” value ([8]; 19F shift (ppm): -118.191) is reported as active: 0.352.

In the case of `CN1CCN(c2ncccc2F)CC1=O`, the “Qbind: 19F CPMG 200 ms/0 ms integral ratio” value ([5]; 19F shift (ppm): -128.107) is reported as active: 0.613.

With `CNC1CCN(c2ccccc2F)C1=O.Cl` (stereo not given) the “Qbind: 19F CPMG 200 ms/0 ms integral ratio” value ([10]; 19F shift (ppm): -121.1759) was active: 0.662.

In the case of `CNc1ncc(C(F)(F)F)cc1Cl`, the “Qbind: 19F CPMG 200 ms/0 ms integral ratio” value ([8]; 19F shift (ppm): -60.8707) is reported as active: 0.551.

For `CC1(S(=O)(=O)N2CCC=C(F)C2)CC1`, the “Qbind: 19F CPMG 200 ms/0 ms integral ratio” value ([3]; 19F shift (ppm): -114.624) was active: 0.274.

With `NC(=O)c1cnc(C(F)(F)F)nc1` the “Qbind: 19F CPMG 200 ms/0 ms integral ratio” value ([3]; 19F shift (ppm): -70.2283) was active: 0.0261 and the “Qbind: 19F CPMG 200 ms/0 ms integral ratio” value ([4]; 19F shift (ppm): -70.3042) was active: 0.548.
